Results from the supplement of paper PMC10037445.
Whole data set: some 2,900 compounds, median “NF-kB SEAP reporter activity, fold change vs agonist alone” near 0.99, cut for the highest 2% near 2.6. The list shows a part of the results.

What was measured:
RAW-Dual [1] = assay: NF-kB SEAP reporter activity, fold change vs agonist alone; higher = enhanced NF-kB activity; conditions: library stock concentration (final ~1000-fold dilution): 10 mM
Outline: (§1)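 RAW-Dual macrophages were seeded in DMEM at 50,000 cells/well in 384-well plates, given 50 nL of library stock by pin tool, and given a PRR agonist 1 h later. Plates were held at 37 °C, 5% CO2 for 20 hours, after which supernatant was read for IRF by QuantiLuc luminescence and for NF-κB by QuantiBlue absorbance at 620 nm. Reporter activity is expressed as fold change over wells that received agonist alone. A well was called cytotoxic when IncuCyte confluency fell below 70% of agonist controls in both mask sets.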

RAW-Dual [2] = assay: NF-kB SEAP reporter activity, fold change vs agonist alone; cytotoxicity flag (confluency mask): cytotoxic (confluency <70% of control); higher = enhanced NF-kB activity
Outline: as §1

RAW-Dual [3] = assay: NF-kB SEAP reporter activity, fold change vs agonist alone; cytotoxicity flag (confluency mask): not cytotoxic; higher = enhanced NF-kB activity
Outline: as §1

[4] = cytotoxicity flag (confluency mask): cytotoxic (confluency <70% of control), agonist: Imiquimod (TLR7) […]
[5] = cytotoxicity flag (confluency mask): cytotoxic (confluency <70% of control), agonist: MPLA (TLR4) […]
[6] = agonist: ODN 1826 (TLR9) 0.5 ug/mL
[7] = agonist: Pam2CSK4 (TLR2/6) 0.1 ug/mL
[8] = agonist: Pam3CSK4 (TLR2/1) 0.1 ug/mL
[9] = cytotoxicity flag (confluency mask): not cytotoxic, agonist: Imiquimod (TLR7) […]
[10] = cytotoxicity flag (confluency mask): not cytotoxic, agonist: MPLA (TLR4) […]

O=C(NO)c1cnc(NC2(c3ccccc3)CC2)nc1
NF-kB SEAP reporter activity (RAW-Dual [1]; [4]): 1.46
NF-kB SEAP reporter activity (RAW-Dual [1]; [5]): 2.22

O=C(NO)c1cnc(NC2(c3ccccc3)CC2)nc1 (library stock concentration (final ~1000-fold dilution): 10 mM)
NF-kB SEAP reporter activity (RAW-Dual [2]; agonist: LPS (TLR4) 0.1 ug/mL): 2.94
NF-kB SEAP reporter activity (RAW-Dual [2]; [6]): 1.6
NF-kB SEAP reporter activity (RAW-Dual [2]; [7]): 0.654
NF-kB SEAP reporter activity (RAW-Dual [2]; [8]): 1.4

COCCOc1cc(F)c2c(Nc3ccc(NC(=O)Cn4cc(C(C)C)nn4)cc3)ncnc2c1
NF-kB SEAP reporter activity (RAW-Dual [1]; [9]): 1.14
NF-kB SEAP reporter activity (RAW-Dual [1]; [10]): 1.01

COCCOc1cc(F)c2c(Nc3ccc(NC(=O)Cn4cc(C(C)C)nn4)cc3)ncnc2c1 (library stock concentration (final ~1000-fold dilution): 10 mM)
NF-kB SEAP reporter activity (RAW-Dual [3]; agonist: LPS (TLR4) 0.1 ug/mL): 1.36
NF-kB SEAP reporter activity (RAW-Dual [3]; [6]): 0.989
NF-kB SEAP reporter activity (RAW-Dual [3]; [7]): 1.16
NF-kB SEAP reporter activity (RAW-Dual [3]; [8]): 1.24

CCN1CCN(Cc2ccc(Nc3ncc(F)c(-c4cc(F)c5nc(C)n(C(C)C)c5c4)n3)nc2)CC1.CS(=O)(=O)O (library stock concentration (final ~1000-fold dilution): 10 mM)
NF-kB SEAP reporter activity (RAW-Dual [3]; agonist: LPS (TLR4) 0.1 ug/mL): 2.05
NF-kB SEAP reporter activity (RAW-Dual [3]; [6]): 0.215
NF-kB SEAP reporter activity (RAW-Dual [3]; [7]): 0.965
NF-kB SEAP reporter activity (RAW-Dual [3]; [8]): 1.38

CCN1CCN(Cc2ccc(Nc3ncc(F)c(-c4cc(F)c5nc(C)n(C(C)C)c5c4)n3)nc2)CC1.CS(=O)(=O)O
NF-kB SEAP reporter activity (RAW-Dual [1]; [9]): 1.42
NF-kB SEAP reporter activity (RAW-Dual [1]; [10]): 2.33

CCc1ccc(OCc2ccccc2C(=O)Nc2ccc3nc(C)cc(N)c3c2)cc1.Cl (library stock concentration (final ~1000-fold dilution): 10 mM)
NF-kB SEAP reporter activity (RAW-Dual [2]; agonist: LPS (TLR4) 0.1 ug/mL): 0.212
NF-kB SEAP reporter activity (RAW-Dual [2]; [6]): 0.198
NF-kB SEAP reporter activity (RAW-Dual [2]; [7]): 0.0939
NF-kB SEAP reporter activity (RAW-Dual [2]; [8]): 0.336

CCc1ccc(OCc2ccccc2C(=O)Nc2ccc3nc(C)cc(N)c3c2)cc1.Cl
NF-kB SEAP reporter activity (RAW-Dual [1]; [4]): 0.265
NF-kB SEAP reporter activity (RAW-Dual [1]; [5]): 0.216

Cc1cc(=O)oc2c(C=O)c(O)ccc12 (library stock concentration (final ~1000-fold dilution): 10 mM)
NF-kB SEAP reporter activity (RAW-Dual [3]; agonist: LPS (TLR4) 0.1 ug/mL): 1.45
NF-kB SEAP reporter activity (RAW-Dual [3]; [6]): 0.766
NF-kB SEAP reporter activity (RAW-Dual [3]; [7]): 0.886
NF-kB SEAP reporter activity (RAW-Dual [3]; [8]): 0.753

Cc1cc(=O)oc2c(C=O)c(O)ccc12
NF-kB SEAP reporter activity (RAW-Dual [1]; [9]): 0.796
NF-kB SEAP reporter activity (RAW-Dual [1]; [10]): 0.827

CCN(CC)CCOC(=O)C(c1ccccc1)C1CCCCC1.Cl (centres undefined)
NF-kB SEAP reporter activity (RAW-Dual [1]; [4]): 1.33
NF-kB SEAP reporter activity (RAW-Dual [1]; [5]): 1.03

CCN(CC)CCOC(=O)C(c1ccccc1)C1CCCCC1.Cl (centres undefined) (library stock concentration (final ~1000-fold dilution): 10 mM)
NF-kB SEAP reporter activity (RAW-Dual [2]; agonist: LPS (TLR4) 0.1 ug/mL): 0.908
NF-kB SEAP reporter activity (RAW-Dual [2]; [6]): 0.742
NF-kB SEAP reporter activity (RAW-Dual [2]; [7]): 0.899
NF-kB SEAP reporter activity (RAW-Dual [2]; [8]): 0.593

Oc1ccc(OC2CCCCO2)cc1 (centres undefined)
NF-kB SEAP reporter activity (RAW-Dual [1]; [9]): 1.25
NF-kB SEAP reporter activity (RAW-Dual [1]; [10]): 1.23

Oc1ccc(OC2CCCCO2)cc1 (centres undefined) (library stock concentration (final ~1000-fold dilution): 10 mM)
NF-kB SEAP reporter activity (RAW-Dual [3]; agonist: LPS (TLR4) 0.1 ug/mL): 1.31
NF-kB SEAP reporter activity (RAW-Dual [3]; [6]): 1.32
NF-kB SEAP reporter activity (RAW-Dual [3]; [7]): 1.27
NF-kB SEAP reporter activity (RAW-Dual [3]; [8]): 1.33

O=c1cc(-c2ccc(O)c(O)c2)oc2cc(OC3OC(CO)C(O)C(O)C3O)cc(O)c12 (centres undefined)
NF-kB SEAP reporter activity (RAW-Dual [1]; [9]): 1.08
NF-kB SEAP reporter activity (RAW-Dual [1]; [10]): 1.03

O=c1cc(-c2ccc(O)c(O)c2)oc2cc(OC3OC(CO)C(O)C(O)C3O)cc(O)c12 (centres undefined) (library stock concentration (final ~1000-fold dilution): 10 mM)
NF-kB SEAP reporter activity (RAW-Dual [3]; agonist: LPS (TLR4) 0.1 ug/mL): 1.4
NF-kB SEAP reporter activity (RAW-Dual [3]; [6]): 1.01
NF-kB SEAP reporter activity (RAW-Dual [3]; [7]): 1.11
NF-kB SEAP reporter activity (RAW-Dual [3]; [8]): 1.26

O=c1[nH]c(=O)n(C2CC(O)C(CO)O2)cc1F (centres undefined)
NF-kB SEAP reporter activity (RAW-Dual [1]; [4]): 2.07
NF-kB SEAP reporter activity (RAW-Dual [1]; [5]): 1.49

O=c1[nH]c(=O)n(C2CC(O)C(CO)O2)cc1F (centres undefined) (library stock concentration (final ~1000-fold dilution): 10 mM)
NF-kB SEAP reporter activity (RAW-Dual [2]; agonist: LPS (TLR4) 0.1 ug/mL): 1.54
NF-kB SEAP reporter activity (RAW-Dual [2]; [6]): 2.11
NF-kB SEAP reporter activity (RAW-Dual [2]; [7]): 1.5
NF-kB SEAP reporter activity (RAW-Dual [2]; [8]): 1.51
